Assay results from the supplement of paper PMC4166925.
± gives the standard deviation of the averaged measurements. Whole data set: some 33,000 sequences, median “E-score (dimensionless, -0.5 to 0.5)” near -0.046, cut for the highest 2% near 0.36. The list shows a part of the results.

The sequences below were run on T1, SpTbr T-box DNA-binding domain (GST fusion) (assay: PBM E-score of 8-mer (E-score (dimensionless, -0.5 to 0.5)); Tbr is Tbrain of the sea star Patiria miniata (Pm) or the sea urchin Strongylocentrotus purpuratus (Sp); higher = stronger binding preference; most listed sequences are background and not binding sites). Settings: the construct has about 5 more residues each side.
T1 sequence: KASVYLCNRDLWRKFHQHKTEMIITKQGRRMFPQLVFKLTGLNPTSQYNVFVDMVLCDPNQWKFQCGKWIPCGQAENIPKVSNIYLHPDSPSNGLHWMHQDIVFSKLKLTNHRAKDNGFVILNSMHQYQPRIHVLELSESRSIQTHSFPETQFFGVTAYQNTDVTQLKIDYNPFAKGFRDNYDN
Procedure, shortened: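 Using the Universal PBM Analysis Suite, every ungapped 8-mer received an enrichment E-score averaged over duplicate arrays. Probe intensities came from double-stranded Universal Agilent oligonucleotide arrays incubated with 200 nM GST-fused Tbr T-box DNA-binding domain in PBS (pH 7.5). That protein was expressed in BL21 E. coli at 20 °C and purified by glutathione affinity chromatography.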

Row | Sequence | PBM E-score of 8-mer
1 | CGTGCTCA | -0.0222 ± 0.013
2 | CCACGACG | 0.108 ± 0.064
3 | CGCACTCA | 0.195 ± 0.014
4 | CGATAGAG | -0.111 ± 0.042
5 | ATTCCAAA | -0.167 ± 0.069
6 | TGACCACA | 0.195 ± 0.012
7 | GGCCGGCA | -0.111 ± 0.038
8 | AAACATAG | -0.0819 ± 0.082
9 | ACTTCTAG | 0.138 ± 0.013
10 | AAGTGCGG | 0.273 ± 0.027
11 | CCATTGTC | -0.0217 ± 0.066
12 | ATTGGGGG | -0.00984 ± 0.018
13 | AGCCGTAG | -0.247 ± 0.058
14 | GCCAGTAA | 0.187 ± 0.052
15 | ACATGTTC | 0.0658 ± 0.071
16 | ACAATAGA | -0.149 ± 0.042
17 | CAGATCCG | 0.0392 ± 0.049
18 | AAATAGCC | -0.115 ± 0.041
19 | CACAACTG | 0.233 ± 0.042
20 | GGCAGCAC | 0.143 ± 0.045
21 | CTTGGAAC | -0.26 ± 0.046
22 | GGTCCGGA | -0.139 ± 0.0059
23 | CGATGTTC | 0.136 ± 0.014
24 | CTATACAA | -0.252 ± 0.033
25 | TAATAATA | -0.117 ± 0.039

Row | Sequence | PBM E-score of 8-mer
26 | ATTGGTGC | 0.211 ± 0.006
27 | GCGGCGCA | -0.0551 ± 0.041
28 | GAACAAGA | -0.0736 ± 0.057
29 | GTTCTGAA | -0.276 ± 0.049
30 | CGGAGCGC | 0.0693 ± 0.058
31 | TAGGCTCA | 0.00589 ± 0.017
32 | CAGCACCA | 0.0555 ± 0.055
33 | CGGTCTAA | -0.0857 ± 0.068
34 | CGGGCGTA | 0.0447 ± 0.035
35 | TCTTGACA | 0.315 ± 0.0035
36 | ACTAAGTG | 0.194 ± 0.0028
37 | GAGGAGCA | -0.273 ± 0.1
38 | ATCGTTTC | 0.0957 ± 0.035
39 | GCAAAGCC | -0.0351 ± 0.015
40 | AAAACTAG | -0.202 ± 0.034
41 | CCAGAACA | -0.102 ± 0.0084
42 | CATTATCC | -0.11 ± 0.049
43 | CACGGTAC | 0.0169 ± 0.071
44 | GCGTTCTA | 0.014 ± 0.0024
45 | AAAGATGG | -0.143 ± 0.012
46 | GAAGTATA | 0.0119 ± 0.039
47 | GAGCATGA | 0.047 ± 0.036
48 | CCTGCACC | 0.0879 ± 0.015
49 | CAATCTGA | -0.278 ± 0.032
50 | CAGCTCAC | 0.178 ± 0.037

Row | Sequence | PBM E-score of 8-mer
51 | CTTTGTCC | 0.16 ± 0.013
52 | ACCAACAG | 0.118 ± 0.031
53 | ACCCCGCC | 0.0747 ± 0.091
54 | CCCGCCCA | 0.115 ± 0.013
55 | AACCTGGT | 0.017 ± 0.096
56 | ACTAGCCT | -0.0352 ± 0.018
57 | ACCAGGAA | -0.142 ± 0.016
58 | ACACCCCT | 0.385 ± 0.013
59 | AGTGGCGC | 0.221 ± 0.03
60 | GCGTACCA | -0.126 ± 0.077
61 | GGCAGACC | -0.257 ± 0.013
62 | AGGGTGTG | 0.449 ± 0.011
63 | GAGTCGGC | -0.178 ± 0.0069
64 | CGTCAGAA | -0.00445 ± 0.048
65 | CTCTTTCA | 0.0408 ± 0.03
66 | ACCTTCGT | 0.197 ± 0.058
67 | AATCCGCC | -0.0867 ± 0.025
68 | AAATGCTT | 0.0037 ± 0.014
69 | CCGATCGG | 0.0608 ± 0.026
70 | CTCCATGC | -0.000665 ± 0.013
71 | ACGTTAGT | -0.0971 ± 0.061
72 | CCCCTTCA | -0.158 ± 0.014
73 | TCAGCACA | 0.146 ± 0.028
74 | ACGGATGA | -0.085 ± 0.053
75 | ATCCAGAT | -0.102 ± 0.095

Row | Sequence | PBM E-score of 8-mer
76 | GTTCGGAA | -0.00327 ± 0.097
77 | GGCTAGGA | -0.184 ± 0.023
78 | ACTGACTC | 0.0022 ± 0.0015
79 | GATCCATA | -0.32 ± 0.047
80 | ACCCGGTA | -0.0146 ± 0.021
81 | TGCTTGAA | -0.225 ± 0.023
82 | GAACGCCA | 0.0516 ± 0.06
83 | GAGGTTCC | -0.169 ± 0.026
84 | CCTCTTGC | -0.0125 ± 0.083
85 | CTGAGGTC | -0.0755 ± 0.025
86 | CAAGTGAC | 0.339 ± 0.0078
87 | CTGGGTTA | -0.0751 ± 0.016
88 | CATAGAGC | -0.0488 ± 0.023
89 | AATGCACC | -0.0734 ± 0.002
90 | CTGGAAGC | -0.197 ± 0.0071
91 | AAAGCTAT | -0.153 ± 0.043
92 | AATTAACC | -0.178 ± 0.044
93 | ATAAGAAT | 0.0614 ± 0.076
94 | ATACGACA | 0.218 ± 0.056
95 | ACATTACA | 0.0137 ± 0.033
96 | ACCAGTAA | -0.19 ± 0.069
97 | AAAGGCCA | -0.115 ± 0.014
98 | AGCAACGC | 0.221 ± 0.02
99 | GATGACAA | 0.278 ± 0.026
100 | AGGCGCTC | -0.0197 ± 0.084

Row | Sequence | PBM E-score of 8-mer
101 | GGCCTCAC | 0.207 ± 0.0034
102 | AAACTGTG | 0.277 ± 0.029
103 | ATCTGCTG | -0.0885 ± 0.046
104 | ATATGCGA | 0.0823 ± 0.085
105 | GCGAACAC | 0.318 ± 0.0091
106 | CCTTGCAG | -0.147 ± 0.017
107 | TAACTCAA | -0.2219 ± 0.00093
108 | CTCCCCCA | -0.0779 ± 0.022
109 | CCAGGGGC | -0.195 ± 0.025
110 | CTCACCTC | 0.444 ± 0.0047
111 | ACGGAGGA | -0.045 ± 0.012
112 | CCACATTA | 0.133 ± 0.051
113 | CGCGAGTA | 0.292 ± 0.003
114 | AACGACGG | 0.00558 ± 0.051
115 | CCTCGGGC | -0.0663 ± 0.004
116 | CATTGTGA | 0.127 ± 0.0013
117 | GACCATGA | -0.0389 ± 0.054
118 | CTAGTCGA | 0.123 ± 0.017
119 | ACCAGACA | -0.148 ± 0.028
120 | TGAATCCA | -0.147 ± 0.0028
121 | CTGAACCA | -0.0511 ± 0.013
122 | AAAAAGTC | -0.142 ± 0.038
123 | AACGACAT | 0.0855 ± 0.049
124 | CAACGAGC | 0.0183 ± 0.021
125 | GTCCAAAA | -0.17 ± 0.012

Row | Sequence | PBM E-score of 8-mer
126 | AATCGTGC | 0.182 ± 0.029
127 | CTTTCAGA | -0.135 ± 0.034
128 | AAGGCTGC | -0.134 ± 0.011
129 | TGCAGACA | 0.046 ± 0.017
130 | CGCCAATA | 0.147 ± 0.062
131 | ACTTACCT | 0.126 ± 0.041
132 | CGACGGCG | 0.123 ± 0.027
133 | AATGCCTA | 0.0332 ± 0.0033
134 | GAAGTAAA | -0.281 ± 0.027
135 | CTAGGCGC | 0.0427 ± 0.039
136 | AGTGAGAC | 0.169 ± 0.04
137 | TCATGGGA | -0.205 ± 0.051
138 | CTATACCA | -0.159 ± 0.06
139 | CGAGTCAG | -0.0765 ± 0.052
140 | AGTAGTAT | -0.13 ± 0.036
141 | GGACGTAC | -0.2 ± 0.012
142 | AACTTGAT | -0.183 ± 0.035
143 | CACTCCAG | 0.136 ± 0.035
144 | ACAGCAGC | -0.0141 ± 0.052
145 | CAGCTGAG | -0.0026 ± 0.071
146 | CGAATTGA | -0.132 ± 0.024
147 | GATTGCAC | 0.197 ± 0.015
148 | CTCCACCC | 0.0474 ± 0.065
149 | TGTGAAAA | 0.394 ± 0.048
150 | ACATATAG | -0.142 ± 0.0068

Row | Sequence | PBM E-score of 8-mer
151 | AAGGAACT | -0.107 ± 0.0035
152 | GATCAGGA | -0.0573 ± 0.01
153 | GATAGATA | -0.198 ± 0.11
154 | AAGATGGT | -0.0834 ± 0.071
155 | ACAGGACT | -0.178 ± 0.0082
156 | ACGTAAAG | -0.107 ± 0.031
157 | AGTATTGA | -0.131 ± 0.045
158 | CCTCTGCG | -0.0608 ± 0.038
159 | AAACGACA | 0.158 ± 0.023
160 | CGATTTTC | 0.0937 ± 0.0036
161 | ACGCGTCG | 0.2872 ± 0.00053
162 | CGCGTGTA | 0.0996 ± 0.044
163 | CCTAGTCC | -0.175 ± 0.036
164 | TCTGTACA | 0.0624 ± 0.018
165 | AGATCTGA | -0.0464 ± 0.074
166 | AAGGCGGG | 0.0185 ± 0.028
167 | CTCAGCCC | -0.09624 ± 0.00049
168 | GTCGCTCA | 0.0351 ± 0.12
169 | TCCTTCAA | -0.229 ± 0.063
170 | ACGATGTG | 0.258 ± 0.019
171 | TCCATCCA | -0.126 ± 0.071
172 | AGCTACGA | -0.00219 ± 0.041
